In PubChem BioAssay AID651820 (National Center for Advancing Translational Sciences (NCATS), 2012):
Screen size: about 340,000 compounds; about 12,000 (3.5%) were called active. Inconclusive results, whose numbers are uncertain, are shown with a selection of clear calls. Calls follow the shape of the dose curve; as a rule, active = well fitted inhibition curve with a large enough effect; inconclusive = small, poorly fitted or top-dose-only effect, or another doubt; inactive = no such curve, though single readings can be large or run the other way. No potency is given beside an inconclusive call; the fits are too rough.

assay: qHTS Assay for Inhibitors of Hepatitis C Virus (HCV); settings: Huh7.5.1 HCVcc-Cre (HCVcc is cell-culture hepatitis C virus) infection, luciferase reporter, 44 h; activity change, negative = inhibition: at 41.8 µM (top of the series) unless noted
Summary of the method: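 Compounds are dispensed onto cells plated 4 h earlier at 1,000 per well, with HCVcc-Cre virus (about 0.5 moi) added next. Following 44 h of culture, luminescent signal is measured for 15 sec after 15 min with substrate at room temperature.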
% is scaled to controls: 0 for no effect and ±100 for the full control effect; potency is read from the fitted curve at half-maximal effect; tags tell the direction and shape of the fitted curve.

Row | Structure (SMILES) | Potency | activity change, negative = inhibition
1 | CCOc1ccccc1-c1nnc(SCC(=O)Nc2ccccc2)o1 | inconclusive [inhibitor, partial curve] | 
2 | CCN(CC)c1nc(Nc2ccccc2)nc(Oc2ccc(=O)[nH]n2)n1 | inconclusive [inhibitor, single point] | 
3 | COc1ccc(NC(=O)C2C3CC/C=C\CCC32)cc1 (stereo unspecified) | inconclusive [inhibitor, single point] | 
4 | CN(C(=O)c1cccc(NC(=O)Cc2ccc([N+](=O)[O-])cc2)c1)C1CC1 | inconclusive [inhibitor, partial curve] | 
5 | O=C(Cn1cnc2c(NCc3ccccc3)ncnc21)NCCCc1ccccc1 | inconclusive [inhibitor, single point] | 
6 | CCCCn1c(N)c(N(CCOC)C(=O)c2cc3ccccc3cc2OC)c(=O)[nH]c1=O | inconclusive [inhibitor, single point] | 
7 | Cc1ccc(CN2CCC(C(=O)Nc3cccc(-c4cccc(F)c4)c3)CC2)o1 | inconclusive [inhibitor, single point] | 
8 | Cc1ccc(S(=O)(=O)NC(C)CCc2ccccc2)cc1C(N)=O (stereo unspecified) | inconclusive [inhibitor, single point] | 
9 | COc1cccc(/C=N/NC(=O)c2cc(-c3cccn3C)n[nH]2)c1O | active: 5.01 µM | 
10 | CCOC(=O)N1CCN(C(=O)COc2ccc3ccccc3c2Br)CC1 |  | inactive: -21%
11 | C#Cc1ccc([C@@H]2C=C(C(=O)NCc3nc4ccccc4[nH]3)O[C@H](OCC)[C@H]2CCCO)cc1 |  | inactive: -21.6%
12 | CCOC(=O)c1sc2ccc(S(=O)(=O)N3CCCCC3)cc2c1N | inconclusive [inhibitor, single point] | 
13 | CC1(C)CC2CC(C)(CN2c2ncnc3ccccc23)C1 (stereo unspecified) | active: 11.2 µM | 
14 | CN(Cc1ccccc1O)CC1CCCN(CCc2ccc(Cl)cc2)C1 (stereo unspecified) | active: 10 µM | 
15 | CC(C)Oc1ccc(Oc2ccc(C(F)(F)F)cn2)cc1 | inconclusive [inhibitor, single point] | 
16 | CCCCSc1nc(C)nc2c1c(=O)n(C)c(=O)n2C | inconclusive [inhibitor, partial curve, poor fit] | 
17 | CC(C)(C)n1ncc2c(=O)n(Cc3ccc(Cl)cc3)cnc21 | active: 11.2 µM | 
18 | COc1cc(Cl)cc(/C=C/c2ccc3ccccc3n2)c1OC(C)=O | inconclusive [inhibitor, partial curve] | 
19 | CN(c1ccccc1)S(=O)(=O)c1ccc(Cl)c(C(=O)OCC(=O)c2c(N)n(C)c(=O)n(C)c2=O)c1 | inconclusive [inhibitor, single point] | 
20 | COc1ccc(-n2c(N)c(C(=O)NCc3ccco3)c3nc4ccccc4nc32)cc1OC | inconclusive [inhibitor, partial curve] | 
21 | CNC(=O)c1ccccc1NC(=O)c1cccc(S(=O)(=O)N2CCC(C)CC2)c1 | inconclusive [inhibitor, single point] | 

Row | Structure (SMILES) | Potency | activity change, negative = inhibition
22 | CCOc1ccc(NC(=S)N(CCOC)C2CCN(C(C)C)CC2)cc1 | inconclusive [inhibitor, single point] | 
23 | C=C(C)[C@@]12OC3(c4ccccc4)O[C@@H]1C1[C@@H]4O[C@]4(CO)[C@@H](O)[C@]4(O)C(=O)C(C)=C[C@H]4[C@@]1(O3)[C@H](C)[C@H]2OC(=O)/C=C/C=C/c1ccccc1 (stereo partly specified) | inconclusive [inhibitor, single point] | 
24 | C=CCn1c(N)cc(=O)nc1SC(C)C(=O)Nc1ccc(C(=O)OCC)cc1 (stereo unspecified) |  | inactive: 25.7%
25 | CC1(C)CC(=O)C2=C(C1)N(c1ccccc1C#N)C(N)=C(C#N)C2c1cccs1 (stereo unspecified) | inconclusive [inhibitor, single point] | 
26 | O=C(Cn1c(=O)c2cccn2c2ccccc21)Nc1cc(F)ccc1F | active: 11.2 µM | 
27 | COc1ccc(C2CC(c3c(-c4ccccc4)c4cc(Cl)ccc4[nH]c3=O)=NN2S(C)(=O)=O)cc1OC (stereo unspecified) | inconclusive [inhibitor, single point] | 
28 | CC(C)C(=O)Nc1cccc(NC(=O)c2cccc(Br)c2)c1 | inconclusive [inhibitor, partial curve] | 
29 | COc1cc(/C=N\NC(=O)c2ccccc2F)ccc1Oc1ccc([N+](=O)[O-])cn1 | inconclusive [inhibitor, full curve] | 
30 | O=C(NCCNC(=O)c1ccccc1Br)c1ccccc1Br |  | inactive: -2.17%
31 | CC(Oc1ccc(F)cc1)C(=O)Nc1cc(Cl)ccc1-n1cncn1 (stereo unspecified) | inconclusive [inhibitor, partial curve] | 
32 | COC(=O)C1=C(C)NC(=S)NC1c1ccc(-c2cccc(Cl)c2)o1 (stereo unspecified) | inconclusive [inhibitor, partial curve, poor fit] | 
33 | Cc1onc(-c2ccccc2)c1C(=O)OCCOc1ccc([N+](=O)[O-])cc1[N+](=O)[O-] | inconclusive [inhibitor, partial curve] | 
34 | COc1ccc(OC)c(/C=N\NC(=O)c2ccc(COc3ccc(C)cc3[N+](=O)[O-])o2)c1 | inconclusive [inhibitor, single point] | 
35 | CCCCNCCOCCOc1ccc(C)cc1Br | inconclusive [inhibitor, partial curve] | 
36 | O=C(N/N=C/c1ccccc1O)C1(O)c2ccccc2-c2ccccc21 | inconclusive [inhibitor, partial curve] | 
37 | Cc1ccc(Sc2ncccc2C(=O)O)c(C)c1 |  | inactive: 2.82%
38 | COc1ccc(C2CCCN2C(=S)Nc2ccccc2C)cc1OC (stereo unspecified) |  | inactive: -8.16%
39 | CCC[C@H](CN[C@@H](CNC)[C@H](C)CC)NCCc1cc(C(F)(F)F)cc(C(F)(F)F)c1 | inconclusive [inhibitor, single point] | 
40 | O=C(Nc1cccc(S(=O)(=O)NC2=NCCCCC2)c1)c1cc(-c2ccco2)nc2ccccc12 | inconclusive [inhibitor, partial curve, poor fit] | 
41 | COc1ccccc1OCC(=O)Nc1cccc(-c2nc3ccccc3o2)c1 | inconclusive [inhibitor, single point] | 
